Laboratory results published in the BET-seq Pho4 binding data (Le et al. 2018).
The list shows a part of the results. Values were computed here from the reads of four pooled replicates and scatter widely.

Target: T1, Pho4 (S. cerevisiae) (UniProt P07270)
T1 sequence: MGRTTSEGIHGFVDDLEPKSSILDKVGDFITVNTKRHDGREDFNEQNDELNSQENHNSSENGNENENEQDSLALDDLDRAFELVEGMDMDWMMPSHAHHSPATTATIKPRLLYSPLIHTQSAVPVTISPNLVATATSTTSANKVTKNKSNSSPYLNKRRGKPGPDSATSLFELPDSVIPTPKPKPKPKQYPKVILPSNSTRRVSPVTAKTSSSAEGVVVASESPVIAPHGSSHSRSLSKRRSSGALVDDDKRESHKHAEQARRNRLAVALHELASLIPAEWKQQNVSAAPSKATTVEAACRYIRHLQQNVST
Test: relative binding free energy (BET-seq); higher = weaker binding
Details: reference: library average

Sequence | relative binding free energy [kcal/mol]
GGACTCACGTGGGTCA | 0.25
TATGGCACGTGGTCGT | -0.24
GGTTTCACGTGCGGGG | 0.34
TTGGGCACGTGGACCG | -0.1
GGTATCACGTGTTATT | 0.21
GTTATCACGTGGGGGA | 0.05
AGGATCACGTGTAGTC | 0.3
GGGGGCACGTGGCGGT | -0.13
TGTATCACGTGCGTAG | 0.06
CGCAGCACGTGCGGGG | -0.12
GGGGACACGTGAGAGT | 0.27
GTTTACACGTGAGGCG | 0.43
TGTATCACGTGCATAT | 0
TCGTTCACGTGGTTCG | 0.35
GATGTCACGTGATGGT | 0.4
AGGTGCACGTGACGCG | 0.02
CGGGGCACGTGCGGAA | -0.13
TTACACACGTGGAGGT | 0.04
AAGTGCACGTGTTTTA | -0.01
AGATCCACGTGGGGGT | -0.11
GGGGTCACGTGTACAG | 0.14
GTTAGCACGTGTTGTG | -0.14
AGTTACACGTGATTGG | 0.15
TGAGTCACGTGGTGAC | -0.04
GTGACCACGTGTTGGT | 0.02

Sequence | relative binding free energy [kcal/mol]
CAGTGCACGTGTTGGG | -0.06
CCTGTCACGTGGGGGT | -0.06
CGGTGCACGTGGGTTC | -0.03
TGTTGCACGTGAGGCT | 0.27
CTAATCACGTGGGGGT | -0.12
AGGTTCACGTGAGAGG | 0.45
GTTGTCACGTGGTGTG | 0.17
TACGACACGTGGTGGT | 0.02
ATTGGCACGTGTGCCT | -0.07
TGAACCACGTGAGGTT | 0.25
ATTATCACGTGGTGTG | -0.02
TGGTTCACGTGTCTTG | 0.25
AGGTGCACGTGGCCGG | -0.21
CGGTACACGTGTTTTT | 0.12
GTTTGCACGTGTTGTG | 0.13
TGAATCACGTGCGTGT | -0.15
TTTCTCACGTGTTGTC | 0.2
TAAGGCACGTGGGAGC | -0.19
AGGCTCACGTGTTGGG | 0.27
AGGTGCACGTGGGTCA | -0.16
AGGTTCACGTGGAGCG | 0.34
CTTTACACGTGTGGGC | 0.21
ATGACCACGTGTTGTG | -0.19
TGCCGCACGTGAGGTT | 0.05
GAATGCACGTGTATGG | 0.14

Sequence | relative binding free energy [kcal/mol]
AGTTTCACGTGCGTGC | 0.13
ATCGGCACGTGTGCAG | 0.02
GGAAGCACGTGGGCAG | -0.32
TATTGCACGTGGCGAT | -0.08
TTGATCACGTGACGTT | 0.19
GGGGGCACGTGGTCCA | -0.22
GGGGACACGTGGCCTT | 0.01
TTCAACACGTGATTGT | 0.13
GGGGACACGTGGGAAA | 0.07
TGAGGCACGTGAAAGG | 0.19
TCTGTCACGTGGGGGA | -0.04
CTGGACACGTGTGGCG | 0.05
AAGGTCACGTGTGGCC | 0.19
ATGTTCACGTGTATTA | 0.2
TAATTCACGTGGTGAG | 0.2
TGTTGCACGTGGGCAT | -0.15
GGGATCACGTGTCTGT | 0.12
TTAGGCACGTGTAGCA | -0.13
GCTTGCACGTGTAGTA | 0.09
TTATGCACGTGGTCTG | -0.14
GGGTGCACGTGAACGA | 0.33
TATGGCACGTGGGGTT | -0.12
CGCGTCACGTGGAGTG | 0.11
GTGGACACGTGTGTTC | 0.26
GGGGGCACGTGCGAAA | -0.05

Sequence | relative binding free energy [kcal/mol]
CGGCGCACGTGGGGAG | -0.26
TTGGCCACGTGTTTTC | 0.12
TTTAGCACGTGACGTT | -0.05
AGTTCCACGTGAAGGG | 0.33
TGTTTCACGTGTCCTG | 0.4
AAGTGCACGTGGTGGA | -0.13
CTTTTCACGTGAGGAT | 0.35
TAATGCACGTGAGGTC | 0.13
CTTCTCACGTGGGTGG | 0
ATTTGCACGTGAAGGA | 0.32
GAAGACACGTGATGGA | 0.42
TGTTTCACGTGTATGA | 0.34
AGATTCACGTGTAAGG | 0.38
TGGCTCACGTGGACGG | 0.23
AGAAGCACGTGGCGGT | -0.19
TATTTCACGTGTCAGG | 0.24
TTGGTCACGTGGTCGG | 0.13
GACGGCACGTGTGTGA | -0.04
GGCTTCACGTGTTGTG | 0.2
TGATTCACGTGGGCGG | 0.04
TATTGCACGTGAGTGC | 0.03
TTAATCACGTGAGTTT | 0.33
GGGTCCACGTGAATGT | 0.2
ATTTGCACGTGTTTGA | -0.02
GGGGACACGTGGCTGG | -0.17

Sequence | relative binding free energy [kcal/mol]
GGTTGCACGTGGAGTA | 0.1
TTAAACACGTGGCGAT | 0.1
GTCTGCACGTGTGGAA | 0.11
CCAGGCACGTGAGGGG | 0.03
TTACTCACGTGTTGTA | 0.14
AAAGTCACGTGGGAGT | -0.02
GAGTTCACGTGCGTTT | 0.4
TGACACACGTGTAGGT | -0.06
TATCGCACGTGTAGGA | -0.04
TTTCTCACGTGGTGTC | 0.19
CATGGCACGTGGCGTT | -0.08
GGAGACACGTGTTGTG | -0.06
AGGAGCACGTGGGTGG | -0.22
TGCTTCACGTGTATAG | 0.07
GCATGCACGTGGGTGC | -0.09
GGGTGCACGTGGGTAG | -0.23
GGTTGCACGTGGCATA | -0.03
AGTATCACGTGGGGTA | -0.15
TGTAGCACGTGGTTAT | -0.04
TAGATCACGTGATGTA | 0.25
GGGGACACGTGACATG | 0.07
TTTCACACGTGTGCTT | 0.23
CTGGACACGTGGTGGG | -0.06
TGAGTCACGTGTAGCA | 0.09
AGCCTCACGTGTGGGG | 0.14

Sequence | relative binding free energy [kcal/mol]
GGTGACACGTGGGGCC | -0.17
GTGTTCACGTGTAAAG | 0.1
GTGAGCACGTGTGTTG | -0.1
AAGAGCACGTGGAAGG | -0.14
GTGGGCACGTGAGGCG | 0.22
GCCTGCACGTGGGTGG | -0.14
GGAGACACGTGAGGAA | 0.25
AATTGCACGTGGGTCA | -0.03
GAGTGCACGTGTTCTT | 0.03
TTATTCACGTGTTGAA | 0.24
GTATGCACGTGAGTAT | 0.15
ATACGCACGTGAGGTT | 0.05
GGTAGCACGTGACTTG | 0.07
TTGACCACGTGTTTGT | 0.02
GTGGCCACGTGGTGCT | -0.21
GGATGCACGTGGTTGT | 0.04
TTTTTCACGTGTATGA | 0.24
CGTAACACGTGGGAGT | -0.17
GCTTACACGTGTTTTA | 0.22
ATATACACGTGATGAT | 0.04
TTGGGCACGTGGAACT | 0.04
